Results from article PMC12820563, “FoxP3 forms a head-to-head dimer in vivo and stabilizes its multimerization on adjacent microsatellites”.
The other results are listed elsewhere or left out.

Each sequence was assayed against T1, MBP-FoxP1dN (Mus musculus, UniProt P58462 326-579) (assay: PD-seq (MBP pull-down with sequencing); 20 mM Tris-HCl pH 7.5, 100 mM NaCl, 1.5 mM MgCl2, 0.4 uM protein, 0.1 uM dsDNA library, 30 min, room temperature, amylose pull-down; high values mean tight binding). Details: protein: recombinant; tags: His6-MBP; chain copies: 2; dsDNA, one strand shown.
T1 sequence: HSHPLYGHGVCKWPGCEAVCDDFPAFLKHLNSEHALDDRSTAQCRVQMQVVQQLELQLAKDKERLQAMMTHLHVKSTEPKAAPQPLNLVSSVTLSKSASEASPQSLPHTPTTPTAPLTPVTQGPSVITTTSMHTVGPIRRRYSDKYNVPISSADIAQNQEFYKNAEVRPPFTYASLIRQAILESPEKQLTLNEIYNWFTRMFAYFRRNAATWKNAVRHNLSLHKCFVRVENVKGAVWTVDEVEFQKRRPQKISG
Procedure, shortened: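 Binding is the reads-per-million enrichment of pull-down relative to input, pooled across replicates. For this, 0.4 µM His6-MBP-tagged mouse FoxP3 or FoxP1 fragment lacking the N-terminus, made in E. coli, was incubated with 0.1 µM Klenow-filled double-stranded degenerate DNA library for 30 min at room temperature in Tris pH 7.5 buffer with NaCl and MgCl2. Complexes bound to amylose resin were washed three times before proteinase K released the DNA for PCR barcoding and Illumina sequencing.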

Going from “GATGATTGTTCTCCCAGCTGATGAATTCATAGAATCGAGTAAACAAATTTTCCTAATCTTTCTGTTCAAGCGCCATCTAC” to “GATGATTGTTCTCCCAGCTGATGAATTACATCAGTCGAGTAAACAAATTTTCCTAATCTTTCTGTTCAAGCGCCATCTAC”, the binding signal rises from 0.955 RPM ratio (pull-down/input) to 1.17 RPM ratio (pull-down/input).

First: GATGATTGTTCTCCCAGCTGATGAATTTCGATGATCGAGTAAACAAATTTTCCTAATCTTTCTGTTCAAGCGCCATCTAC
Second: GATGATTGTTCTCCCAGCTGATGAATTTAGTTGTTCGAGTAAACAAATTTTCCTAATCTTTCTGTTCAAGCGCCATCTAC
The binding signal of the first is lower: 0.907 RPM ratio (pull-down/input) for the first, 1.71 RPM ratio (pull-down/input) for the second.

Compared with “GATGATTGTTCTCCCAGCTGATGAATTTAACCATTCGAGTAAACAAATTTTCCTAATCTTTCTGTTCAAGCGCCATCTAC”, “GATGATTGTTCTCCCAGCTGATGAATTAATGACTTCGAGTAAACAAATTTTCCTAATCTTTCTGTTCAAGCGCCATCTAC” is lower in binding signal: 0.939 RPM ratio (pull-down/input) for the first, 0.904 RPM ratio (pull-down/input) for the second.

First: GATGATTGTTCTCCCAGCTGATGAATTCGAAAGATCGAGTAAACAAATTTTCCTAATCTTTCTGTTCAAGCGCCATCTAC
Second: GATGATTGTTCTCCCAGCTGATGAATTACTTTCATCGAGTAAACAAATTTTCCTAATCTTTCTGTTCAAGCGCCATCTAC
The binding signal of the first is lower: 0.94 RPM ratio (pull-down/input) for the first, 1.02 RPM ratio (pull-down/input) for the second.

Going from “GATGATTGTTCTCCCAGCTGATGAATTATTGACATCGAGTAAACAAATTTTCCTAATCTTTCTGTTCAAGCGCCATCTAC” to “GATGATTGTTCTCCCAGCTGATGAATTACGATTATCGAGTAAACAAATTTTCCTAATCTTTCTGTTCAAGCGCCATCTAC”, the binding signal falls from 2 RPM ratio (pull-down/input) to 1.22 RPM ratio (pull-down/input).

Going from “GATGATTGTTCTCCCAGCTGATGAATTTGATGTTTCGAGTAAACAAATTTTCCTAATCTTTCTGTTCAAGCGCCATCTAC” to “GATGATTGTTCTCCCAGCTGATGAATTTCACTTTTCGAGTAAACAAATTTTCCTAATCTTTCTGTTCAAGCGCCATCTAC”, the binding signal falls from 1.16 RPM ratio (pull-down/input) to 0.926 RPM ratio (pull-down/input).

First: GATGATTGTTCTCCCAGCTGATGAATTTTCAACTTCGAGTAAACAAATTTTCCTAATCTTTCTGTTCAAGCGCCATCTAC
Second: GATGATTGTTCTCCCAGCTGATGAATTCGAAGGTTCGAGTAAACAAATTTTCCTAATCTTTCTGTTCAAGCGCCATCTAC
The binding signal of the first is higher: 0.943 RPM ratio (pull-down/input) for the first, 0.81 RPM ratio (pull-down/input) for the second.

First: GATGATTGTTCTCCCAGCTGATGAATTGCTTGGCTCGAGTAAACAAATTTTCCTAATCTTTCTGTTCAAGCGCCATCTAC
Second: GATGATTGTTCTCCCAGCTGATGAATTGTTCGACTCGAGTAAACAAATTTTCCTAATCTTTCTGTTCAAGCGCCATCTAC
The binding signal of the first is lower: 0.933 RPM ratio (pull-down/input) for the first, 1.01 RPM ratio (pull-down/input) for the second.

Going from “GATGATTGTTCTCCCAGCTGATGAATTCCAGCAGTCGAGTAAACAAATTTTCCTAATCTTTCTGTTCAAGCGCCATCTAC” to “GATGATTGTTCTCCCAGCTGATGAATTGCCGGGGTCGAGTAAACAAATTTTCCTAATCTTTCTGTTCAAGCGCCATCTAC”, the binding signal rises from 0.739 RPM ratio (pull-down/input) to 0.827 RPM ratio (pull-down/input).

First: GATGATTGTTCTCCCAGCTGATGAATTTGGACAGTCGAGTAAACAAATTTTCCTAATCTTTCTGTTCAAGCGCCATCTAC
Second: GATGATTGTTCTCCCAGCTGATGAATTCGGATCTTCGAGTAAACAAATTTTCCTAATCTTTCTGTTCAAGCGCCATCTAC
The binding signal of the first is higher: 0.81 RPM ratio (pull-down/input) for the first, 0.788 RPM ratio (pull-down/input) for the second.

Compared with “GATGATTGTTCTCCCAGCTGATGAATTGATTCCCTCGAGTAAACAAATTTTCCTAATCTTTCTGTTCAAGCGCCATCTAC”, “GATGATTGTTCTCCCAGCTGATGAATTCTAACAGTCGAGTAAACAAATTTTCCTAATCTTTCTGTTCAAGCGCCATCTAC” is lower in binding signal: 0.993 RPM ratio (pull-down/input) for the first, 0.932 RPM ratio (pull-down/input) for the second.

Compared with “GATGATTGTTCTCCCAGCTGATGAATTAGTCCGGTCGAGTAAACAAATTTTCCTAATCTTTCTGTTCAAGCGCCATCTAC”, “GATGATTGTTCTCCCAGCTGATGAATTCTACCGGTCGAGTAAACAAATTTTCCTAATCTTTCTGTTCAAGCGCCATCTAC” is lower in binding signal: 0.847 RPM ratio (pull-down/input) for the first, 0.708 RPM ratio (pull-down/input) for the second.

“GATGATTGTTCTCCCAGCTGATGAATTCAGTTAATCGAGTAAACAAATTTTCCTAATCTTTCTGTTCAAGCGCCATCTAC” and “GATGATTGTTCTCCCAGCTGATGAATTCAATTAATCGAGTAAACAAATTTTCCTAATCTTTCTGTTCAAGCGCCATCTAC” are the same in binding signal: 1.06 RPM ratio (pull-down/input) for the first, 1.06 RPM ratio (pull-down/input) for the second.

Compared with “GATGATTGTTCTCCCAGCTGATGAATTTTCTTTGTCGAGTAAACAAATTTTCCTAATCTTTCTGTTCAAGCGCCATCTAC”, “GATGATTGTTCTCCCAGCTGATGAATTCTTCCGGTCGAGTAAACAAATTTTCCTAATCTTTCTGTTCAAGCGCCATCTAC” is lower in binding signal: 1.11 RPM ratio (pull-down/input) for the first, 0.868 RPM ratio (pull-down/input) for the second.

First: GATGATTGTTCTCCCAGCTGATGAATTACATTGGTCGAGTAAACAAATTTTCCTAATCTTTCTGTTCAAGCGCCATCTAC
Second: GATGATTGTTCTCCCAGCTGATGAATTGTTACCTTCGAGTAAACAAATTTTCCTAATCTTTCTGTTCAAGCGCCATCTAC
The binding signal of the first is lower: 1.06 RPM ratio (pull-down/input) for the first, 1.25 RPM ratio (pull-down/input) for the second.

Going from “GATGATTGTTCTCCCAGCTGATGAATTATAAATCTCGAGTAAACAAATTTTCCTAATCTTTCTGTTCAAGCGCCATCTAC” to “GATGATTGTTCTCCCAGCTGATGAATTTGAACCATCGAGTAAACAAATTTTCCTAATCTTTCTGTTCAAGCGCCATCTAC”, the binding signal falls from 1.11 RPM ratio (pull-down/input) to 0.887 RPM ratio (pull-down/input).

Compared with “GATGATTGTTCTCCCAGCTGATGAATTGCCCGCATCGAGTAAACAAATTTTCCTAATCTTTCTGTTCAAGCGCCATCTAC”, “GATGATTGTTCTCCCAGCTGATGAATTGATGCCGTCGAGTAAACAAATTTTCCTAATCTTTCTGTTCAAGCGCCATCTAC” is higher in binding signal: 1.15 RPM ratio (pull-down/input) for the first, 1.27 RPM ratio (pull-down/input) for the second.

Going from “GATGATTGTTCTCCCAGCTGATGAATTCAGCTAGTCGAGTAAACAAATTTTCCTAATCTTTCTGTTCAAGCGCCATCTAC” to “GATGATTGTTCTCCCAGCTGATGAATTTGACGTGTCGAGTAAACAAATTTTCCTAATCTTTCTGTTCAAGCGCCATCTAC”, the binding signal rises from 0.836 RPM ratio (pull-down/input) to 0.845 RPM ratio (pull-down/input).

Going from “GATGATTGTTCTCCCAGCTGATGAATTCCGTGCGTCGAGTAAACAAATTTTCCTAATCTTTCTGTTCAAGCGCCATCTAC” to “GATGATTGTTCTCCCAGCTGATGAATTGAGGCGATCGAGTAAACAAATTTTCCTAATCTTTCTGTTCAAGCGCCATCTAC”, the binding signal rises from 0.961 RPM ratio (pull-down/input) to 0.965 RPM ratio (pull-down/input).

Compared with “GATGATTGTTCTCCCAGCTGATGAATTCGCTATCTCGAGTAAACAAATTTTCCTAATCTTTCTGTTCAAGCGCCATCTAC”, “GATGATTGTTCTCCCAGCTGATGAATTTTTGGTATCGAGTAAACAAATTTTCCTAATCTTTCTGTTCAAGCGCCATCTAC” is higher in binding signal: 0.828 RPM ratio (pull-down/input) for the first, 1.09 RPM ratio (pull-down/input) for the second.
